Patent US9873709B2 (priority 2013, dated 2018)

Biological target: isolated recombinant JAK1 kinase domain (Homo sapiens (Human), UniProt P23458)
Details: read-out: JAK1 Ki

SMILES	Ki
O=C(N[C@H]1CN2CCC1CC2)c1ccc(Nc2nc3c(N4CCC(O)(c5ccc(Cl)cc5)CC4)cccn3n2)cc1 [Example 1-89, 4-[[8-[4-(4-chlorophenyl)-4-hydroxy-1-piperidyl]-[1,2,4]triazolo[1,5-a]pyridin-2-yl]amino]-N-[(3R)-quinuclidin-3-yl]benzamide]	1.9 nM

Same assay, conditions: read-out: JAK1 Ki; isolated recombinant JAK1 kinase domain, 25 μM ATP

Ki	SMILES
2.48 nM	CN1CC[C@H]2CN(C(=O)c3ccc(Nc4nc5c(N6CCC(O)(c7ccc(Cl)cc7)CC6)cccn5n4)cc3)C[C@H]21 [Example 1-75, [(3aS,6aS)-1-methyl-2,3,3a,4,6,6a-hexahydropyrrolo[3,4-b]pyrrol-5-yl]-[4[[8-[4-(4-chlorophenyl)-4-hydroxy-1-piperidyl]-[1,2,4]triazolo[1,5-a]pyridin-2-yl]amino]phenyl] methanone]
1.51 nM	CN1C[C@@H]2CCN(C(=O)c3ccc(Nc4nc5c(N6CCC(O)(c7ccc(Cl)cc7)CC6)cccn5n4)cc3)[C@@H]2C1 [Example 1-76, [(3aS,6aS)-5-methyl-2,3,3a,4,6,6a-hexahydropyrrolo[2,3-c]pyrrol-1-yl]-[4-[[8-[4-(4-chlorophenyl)-4-hydroxy-1-piperidyl]-[1,2,4]triazolo[1,5-a]pyridin-2-yl]amino]phenyl] methanone]
3.29 nM	CN(C)CC1(O)CCCN(C(=O)c2ccc(Nc3nc4c(N5CCC(O)(c6ccc(Cl)cc6)CC5)cccn4n3)cc2)CC1 (stereo not drawn) [Example 1-77, [4-[[8-[4-(4-chlorophenyl)-4-hydroxy-1-piperidyl]-[1,2,4]triazolo[1,5-a]pyridin-2-yl]amino]phenyl]-[4-[(dimethylamino)methyl]-4-hydroxy-azepan-1-yl]methanone]
3.26 nM	CN1CCN(C(=O)C2COCCN2C(=O)c2ccc(Nc3nc4c(N5CCC(O)(c6ccc(Cl)cc6)CC5)cccn4n3)cc2)CC1 (stereo not drawn) [Example 1-78, [4-[[8-[4-(4-chlorophenyl)-4-hydroxy-1-piperidyl]-[1,2,4]triazolo[1,5-a]pyridin-2-yl]amino]phenyl]-[3-(4-methylpiperazine-1-carbonyl)morpholin-4-yl]methanone]
4.79 nM	Cc1cc(N(C)C)cc(C2CCCN2C(=O)c2ccc(Nc3nc4c(N5CCC(O)(c6ccc(Cl)cc6)CC5)cccn4n3)cc2)n1 (stereo not drawn) [Example 1-79, [4-[[8-[4-(4-chlorophenyl)-4-hydroxy-1-piperidyl]-[1,2,4]triazolo[1,5-a]pyridin-2-yl]amino]phenyl]-[2-[4-(dimethylamino)-6-methyl-2-pyridyl]pyrrolidin-1-yl]methanone]
3.47 nM	CN(C)CCC1CCCN(C(=O)c2ccc(Nc3nc4c(N5CCC(O)(c6ccc(Cl)cc6)CC5)cccn4n3)cc2)C1 (stereo not drawn) [Example 1-80, [4[[8-[4-(4-chlorophenyl)-4-hydroxy-1-piperidyl]-[1,2,4]triazolo[1,5-a]pyridin-2-yl]amino]phenyl]-[3-[2-(dimethylamino)ethyl]-1-piperidyl]methanone]
0.82 nM	CN1CCC2(CC1)CN(C(=O)c1ccc(Nc3nc4c(N5CCC(O)(c6ccc(Cl)cc6)CC5)cccn4n3)cc1)C2 [Example 1-81, [4-[[8-[4-(4-chlorophenyl)-4-hydroxy-1-piperidyl]-[1,2,4]triazolo[1,5-a]pyridin-2-yl]amino]phenyl]-(7-methyl-2,7-diazaspiro[3.5]nonan-2-yl)methanone]
3.09 nM	CN1CCN(C(=O)c2ccc(Nc3nc4c(N5CCC(O)(c6ccc(Cl)cc6)CC5)cccn4n3)cc2)C(C(=O)N(C)C)C1 (stereo not drawn) [Example 1-82, 1-[4-[[8-[4-(4-chlorophenyl)-4-hydroxy-1-piperidyl]-[1,2,4]triazolo[1,5-a]pyridin-2-yl]amino]benzoyl]-N,N,4-trimethyl-piperazine-2-carboxamide]
3.24 nM	O=C(c1ccc(Nc2nc3c(N4CCC(O)(c5ccc(Cl)cc5)CC4)cccn3n2)cc1)N1CCC(c2ccncc2)CC1 [Example 1-83, [4-[[8-[4-(4-chlorophenyl)-4-hydroxy-1-piperidyl]-[1,2,4]triazolo[1,5-a]pyridin-2-yl]amino]phenyl]-[4-(4-pyridyl)-1-piperidyl]methanone]
2.37 nM	O=C(c1ccc(Nc2nc3c(N4CCC(O)(c5ccc(Cl)cc5)CC4)cccn3n2)cc1)N1CCN(CCO)CC1 [Example 1-84, [4-[[8-[4-(4-chlorophenyl)-4-hydroxy-1-piperidyl]-[1,2,4]triazolo[1,5-a]pyridin-2-yl]amino]phenyl]-[4-(2-hydroxyethyl)piperazin-1-yl]methanone]
2.49 nM	CN(CCc1ccccn1)C(=O)c1ccc(Nc2nc3c(N4CCC(O)(c5ccc(Cl)cc5)CC4)cccn3n2)cc1 [Example 1-85, 4-[[8-[4-(4-chlorophenyl)-4-hydroxy-1-piperidyl]-[1,2,4]triazolo[1,5-a]pyridin-2-yl]amino]-N-methyl-N-[2-(2-pyridyl)ethyl]benzamide]
2.01 nM	CN(C)C1CCN(C(=O)c2ccc(Nc3nc4c(N5CCC(O)(c6ccc(Cl)cc6)CC5)cccn4n3)cc2)CC1 [Example 1-86, [4-[[8-[4-(4-chlorophenyl)-4-hydroxy-1-piperidyl]-[1,2,4]triazolo[1,5-a]pyridin-2-yl]amino]phenyl]-[4-(dimethylamino)-1-piperidyl]methanone]
4.74 nM	CN1CCC(N(C)C(=O)c2ccc(Nc3nc4c(N5CCC(O)(c6ccc(Cl)cc6)CC5)cccn4n3)cc2)C1 (stereo not drawn) [Example 1-87, 4-[[8-[4-(4-chlorophenyl)-4-hydroxy-1-piperidyl]-[1,2,4]triazolo[1,5-a]pyridin-2-yl]amino]-N-methyl-N-(1-methylpyrrolidin-3-yl)benzamide]
2.7 nM	CN(C)C1CCN(C(=O)c2ccc(Nc3nc4c(N5CCC(O)(c6ccc(Cl)cc6)CC5)cccn4n3)cc2)C1 (stereo not drawn) [Example 1-88, [4-[[8-[4-(4-chlorophenyl)-4-hydroxy-1-piperidyl]-[1,2,4]triazolo[1,5-a]pyridin-2-yl]amino]phenyl]-[3-(dimethylamino)pyrrolidin-1-yl]methanone]
2.55 nM	CC1CN(CCNC(=O)c2ccc(Nc3nc4c(N5CCC(O)(c6ccc(Cl)cc6)CC5)cccn4n3)cc2)CC(C)O1 (stereo not drawn) [Example 1-91, 4-[[8-[4-(4-chlorophenyl)-4-hydroxy-1-piperidyl]-[1,2,4]triazolo[1,5-a]pyridin-2-yl]amino]-N-[2-(2,6-dimethylmorpholin-4-yl)ethyl]benzamide]
1.68 nM	CN1CC(NC(=O)c2ccc(Nc3nc4c(N5CCC(O)(c6ccc(Cl)cc6)CC5)cccn4n3)cc2)C1 [Example 1-92, 4-[[8-[4-(4-chlorophenyl)-4-hydroxy-1-piperidyl]-[1,2,4]triazolo[1,5-a]pyridin-2-yl]amino]-N-(1-methylazetidin-3-yl)benzamide]
6.13 nM	CC(C)(CN1CCOCC1)NC(=O)c1ccc(Nc2nc3c(N4CCC(O)(c5ccc(Cl)cc5)CC4)cccn3n2)cc1 [Example 1-93, 4-[[8-[4-(4-chlorophenyl)-4-hydroxy-1-piperidyl]-[1,2,4]triazolo[1,5-a]pyridin-2-yl]amino]-N-(1,1-dimethyl-2-morpholino-ethyl)benzamide]
1.93 nM	O=C(NCCN1CCC(O)CC1)c1ccc(Nc2nc3c(N4CCC(O)(c5ccc(Cl)cc5)CC4)cccn3n2)cc1 [Example 1-95, 4-[[8-[4-(4-chlorophenyl)-4-hydroxy-1-piperidyl]-[1,2,4]triazolo[1,5-a]pyridin-2-yl]amino]-N-[2-(4-hydroxy-1-piperidyl)ethyl] benzamide]
1.72 nM	CN1CCN(CCCNC(=O)c2ccc(Nc3nc4c(N5CCC(O)(c6ccc(Cl)cc6)CC5)cccn4n3)cc2)CC1 [Example 1-96, 4-[[8-[4-(4-chlorophenyl)-4-hydroxy-1-piperidyl]-[1,2,4]triazolo[1,5-a]pyridin-2-yl]amino]-N-[3-(4-methylpiperazin-1-yl)propyl]benzamide]
1.98 nM	CN1CCN(CCNC(=O)c2ccc(Nc3nc4c(N5CCC(O)(c6ccc(Cl)cc6)CC5)cccn4n3)cc2)CC1 [Example 1-97, 4-[[8-[4-(4-chlorophenyl)-4-hydroxy-1-piperidyl]-[1,2,4]triazolo[1,5-a]pyridin-2-yl]amino]-N-[2-(4-methylpiperazin-1-yl)ethyl]benzamide]
1.44 nM	O=C(NCCCN1CCOCC1)c1ccc(Nc2nc3c(N4CCC(O)(c5ccc(Cl)cc5)CC4)cccn3n2)cc1 [Example 1-98, 4-[[8-[4-(4-chlorophenyl)-4-hydroxy-1-piperidyl]-[1,2,4]triazolo[1,5-a]pyridin-2-yl]amino]-N-(3-morpholinopropyl) benzamide]
1.94 nM	O=C(NCCN1CCOCC1)c1ccc(Nc2nc3c(N4CCC(O)(c5ccc(Cl)cc5)CC4)cccn3n2)cc1 [Example 1-101, 4-[[8-[4-(4-chlorophenyl)-4-hydroxy-1-piperidyl]-[1,2,4]triazolo[1,5-a]pyridin-2-yl]amino]-N-(2-morpholinoethyl)benzamide]
1.73 nM	CN1CCCC1CCNC(=O)c1ccc(Nc2nc3c(N4CCC(O)(c5ccc(Cl)cc5)CC4)cccn3n2)cc1 (stereo not drawn) [Example 1-102, 4-[[8-[4-(4-chlorophenyl)-4-hydroxy-1-piperidyl]-[1,2,4]triazolo[1,5-a]pyridin-2-yl]amino]-N-[2-(1-methylpyrrolidin-2-yl)ethyl]benzamide]
1.54 nM	CN1CCCCC1CNC(=O)c1ccc(Nc2nc3c(N4CCC(O)(c5ccc(Cl)cc5)CC4)cccn3n2)cc1 (stereo not drawn) [Example 1-103, 4-[[8-[4-(4-chlorophenyl)-4-hydroxy-1-piperidyl]-[1,2,4]triazolo[1,5-a]pyridin-2-yl]amino]-N-[(1-methyl-2-piperidyl)methyl]benzamide]
3.26 nM	CN1CCC(CNC(=O)c2ccc(Nc3nc4c(N5CCC(O)(c6ccc(Cl)cc6)CC5)cccn4n3)cc2)CC1 [Example 1-104, 4-[[8-[4-(4-chlorophenyl)-4-hydroxy-1-piperidyl]-[1,2,4]triazolo[1,5-a]pyridin-2-yl]amino]-N-[(1-methyl-4-piperidyl)methyl]benzamide]
2.27 nM	O=C(NCCN1CCCC1)c1ccc(Nc2nc3c(N4CCC(O)(c5ccc(Cl)cc5)CC4)cccn3n2)cc1 [Example 1-106, 4-[[8-[4-(4-chlorophenyl)-4-hydroxy-1-piperidyl]-[1,2,4]triazolo[1,5-a]pyridin-2-yl]amino]-N-(2-pyrrolidin-1-ylethyl)benzamide]
